# According to paper PMC4336329 (PLoS ONE, 2015):
# About 2,200 (0.71%) of roughly 310,000 compounds showed an effect of 50% or more. Effects have a minus sign here. This is one part of the list.
# Target: human ether-à-go-go-related gene (hERG) potassium channel (human, UniProt Q12809)
# Assay: primary screen, population patch clamp on CHO cells stably expressing hERG
# human ether-à-go-go-related gene (hERG) potassium channel, sequence (Q12809 whole entry, looked up): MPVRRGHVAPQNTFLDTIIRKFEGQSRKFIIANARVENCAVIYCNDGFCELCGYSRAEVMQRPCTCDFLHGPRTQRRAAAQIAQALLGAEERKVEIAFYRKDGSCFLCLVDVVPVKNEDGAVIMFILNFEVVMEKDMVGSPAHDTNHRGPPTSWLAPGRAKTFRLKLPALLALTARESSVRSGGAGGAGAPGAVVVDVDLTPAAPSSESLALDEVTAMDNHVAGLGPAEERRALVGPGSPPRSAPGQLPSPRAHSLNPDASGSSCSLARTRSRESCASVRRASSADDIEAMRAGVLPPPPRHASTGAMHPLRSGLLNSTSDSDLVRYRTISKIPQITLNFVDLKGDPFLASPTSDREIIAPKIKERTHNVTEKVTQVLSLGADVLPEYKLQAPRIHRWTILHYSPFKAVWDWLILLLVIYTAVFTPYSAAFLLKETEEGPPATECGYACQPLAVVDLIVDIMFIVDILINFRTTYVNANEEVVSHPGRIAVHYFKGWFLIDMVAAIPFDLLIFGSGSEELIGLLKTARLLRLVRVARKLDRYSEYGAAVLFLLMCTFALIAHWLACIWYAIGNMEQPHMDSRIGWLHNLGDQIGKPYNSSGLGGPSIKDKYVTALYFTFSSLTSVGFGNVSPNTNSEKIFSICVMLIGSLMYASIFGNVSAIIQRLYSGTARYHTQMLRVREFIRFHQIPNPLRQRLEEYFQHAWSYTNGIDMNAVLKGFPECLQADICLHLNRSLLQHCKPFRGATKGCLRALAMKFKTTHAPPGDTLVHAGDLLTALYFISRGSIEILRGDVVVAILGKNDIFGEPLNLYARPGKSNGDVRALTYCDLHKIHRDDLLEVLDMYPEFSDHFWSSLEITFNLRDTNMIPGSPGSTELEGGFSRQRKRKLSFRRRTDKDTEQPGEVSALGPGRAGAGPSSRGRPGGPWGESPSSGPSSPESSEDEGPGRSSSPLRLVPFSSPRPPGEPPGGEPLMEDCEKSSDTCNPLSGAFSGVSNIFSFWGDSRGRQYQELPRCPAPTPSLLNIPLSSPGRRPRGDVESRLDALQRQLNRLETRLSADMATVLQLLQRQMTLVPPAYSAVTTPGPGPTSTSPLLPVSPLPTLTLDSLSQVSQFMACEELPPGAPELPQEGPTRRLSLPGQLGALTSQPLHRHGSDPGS
row,Compound,"hERG current change (%, negative = inhibition) at 1uM [%]"
1,COc1cc(-c2cc(C(=O)OCC(=O)Nc3ccc4c(c3)OCO4)c3ccccc3n2)cc(OC)c1OC,12.4
2,Cc1ccc(NC(=O)CCCN2C(=O)c3cccc4cccc(c34)C2=O)cc1,6.07
3,CCOc1cc(C(=S)N2CCOCC2)ccc1OC(=O)/C=C/c1ccc(OC)c(OC)c1,9.97
4,COC(=O)c1ccc(-c2nc(-c3ccc(Br)o3)no2)cc1,7.31
5,CCCCC(c1nnnn1CC1CCCO1)N1CCN(c2cccc(C)c2C)CC1.Cl (stereo not shown),3.38
6,O=C(COc1ccc(NC(=O)c2ccccc2)cc1)c1ccccc1,9.93
7,CCCNC(=O)C1(CC2CC(c3ccccc3)=NO2)CCN(C(=O)CCCCCBr)CC1 (stereo not shown),-5.35
8,O=C(CCSCCc1ccccn1)Nc1c(F)c(F)c(F)c(F)c1F,8.61
9,N#CC1=C(N)Oc2c(ccc3ccccc23)C1c1ccsc1 (stereo not shown),10.7
10,COc1ccc(NC(=O)Cc2nnc(SCC(=O)Nc3cc(C)ccc3OC)n2C)cc1,8.46
11,NC1=NC(=O)C2(COC(c3ccncc3)OC2)S1 (stereo not shown),17.1
12,CCOC(=O)C1(CCCc2ccccc2)CCN(C(=O)c2ocnc2C)CC1,-14.9
13,COc1ccc(OCc2ccc(C(=O)N3CCOCC3)cc2)cc1,11.3
14,O=C(CSc1ccc2nnc(CCNC(=O)c3ccccc3)n2n1)Nc1ccc(F)cc1F,9.08
15,O=C1NC(=S)N/C1=C/c1cc([N+](=O)[O-])ccc1O,13.2
16,COc1ccc(C(C)=O)cc1CSc1nnc(-c2ccncc2)n1C,25.1
17,CCOC(=O)c1ccccc1NC(=O)c1cn(-c2ccc(C)c(C)c2)c(=O)c2ccccc12,-6.46
18,CCN(CC(=O)Nc1ccc(N2CCOCC2)cc1)C(=O)COc1ccccc1OC,10.8
19,Cc1[nH]c2ccccc2c1/C=N/NC(=O)c1cc(-c2ccccc2)n[nH]1,15.9
20,COc1ccc(OCCCC(=O)N2CCN(S(=O)(=O)c3cccc(F)c3)CC2)cc1,-1.89
21,CCn1ncc(Br)c1C(=O)NC1CCCCCCC1,10.7
22,CCN(CC)C(=O)C1CC(=O)OC1(C)C (stereo not shown),5.73

row,Compound,"hERG current change (%, negative = inhibition) at 1uM [%]"
1,O=C(NCC1CCCO1)c1nn2c(C(F)(F)F)cc(-c3cc(Br)cs3)nc2c1Br (stereo not shown),8.99
2,COC(=O)c1ccc(CN(Cc2ccc(C(=O)OC)o2)C(C)(C)C)o1.Cl,-10.3
3,COc1ccc(/C(O)=C2/C(=O)C(=O)N(CCCC(=O)O)C2c2ccc(OC)c(OC)c2)cc1 (stereo not shown),12.8
4,COc1ccc(OC)c(NC(=O)c2cnn(-c3ccccc3Cl)c2NC(=O)c2ccco2)c1,-6.26
5,CCC(=O)NCCc1cc2cc(C)c(C)cc2[nH]c1=O,9
6,Cc1ccc(NC(=O)C2C3/C=C\CCCCC32)cc1C (stereo not shown),13
7,N#CC(C#N)=Cc1cnc(N2CCN(c3ccccc3)CC2)s1,18.9
8,CC/C(C)=C1\SC(N2CCN(c3cccc(C(F)(F)F)c3)CC2)=NC1=O,-6.41
9,N#Cc1c(NC(=O)CSc2nc3ccccc3c(=O)n2Cc2ccco2)sc2c1CCCC2,15.4
10,COc1ccccc1-c1noc(-c2ccccc2C(=O)N2CCOCC2)n1,1.87
11,O=S(=O)(NCCc1nnc2ccc(SCc3cccnc3)nn12)c1ccccc1,9.44
12,Cc1ccc(OCC(=O)N2CCN(C)CC2)c(Br)c1,-0.058
13,Cc1nn(Cc2ccccc2)c(C)c1C(=O)N1CCN(CC(=O)Nc2ccc(F)cc2)CC1,-9.32
14,Cc1ccc(NC(=O)CNC(=O)c2ccc(Br)o2)nc1,7.17
15,O=C1NC(c2ccccc2)(C(F)(F)F)SC2=NCCCN12 (stereo not shown),13.1
16,COc1ccc(NC(=O)C2CCN(S(C)(=O)=O)CC2)c(OC)c1,16.2
17,O=C(COC(=O)c1ccccc1C(=O)c1ccccc1)NCc1ccc(F)cc1,3.61
18,COc1ccc(CC(=O)Nc2ccc(S(=O)(=O)NCC3CCCO3)cc2)cc1 (stereo not shown),12.7
19,CCc1ccc(C2=NN(C(=O)OC)C(O)(C(F)(F)F)C2)cc1 (stereo not shown),0.622
20,COc1ccc(C(=O)NCCS(=O)(=O)NC2CCCC2)cc1,13.9
21,CCn1cc(C(=O)N2CCCC2)c(=O)c2cc(S(=O)(=O)N3CCC(C)CC3)ccc21,9.42
22,O=C1CSC(=S)N1c1ccc(Cl)c(Cl)c1,13.7

row,Compound,"hERG current change (%, negative = inhibition) at 1uM [%]"
1,Cn1c(=O)c2c(ncn2CC(=O)OCC(=O)NCc2ccc(Cl)cc2)n(C)c1=O,1.07
2,O=C(O)CCCN1C(=O)c2ccc(Oc3cccc([N+](=O)[O-])c3)cc2C1=O,18.2
3,O=C(NCc1ccccc1)c1c(O)c2ccccc2[nH]c1=O,17.1
4,CCOC(=O)c1ccccc1NC(=O)COC(=O)c1c(CC)noc1C,7.65
5,CCCCNC(=S)N(Cc1c(C)noc1C)c1ccccc1,5.46
6,Nc1c(Cl)ncnc1N/N=C/c1ccc(O)cc1,14.9
7,COc1ccc(CNC(=O)COC(=O)/C=C/c2ccc(Cl)cc2)cc1,10.7
8,COc1ccc(C(=O)Nc2c(N)nc(SCC(=O)NCC3CCCO3)[nH]c2=O)cc1 (stereo not shown),11.4
9,O=C(c1ccccc1NS(=O)(=O)c1ccc(Br)s1)N1CCCC1,-1.68
10,CCOC(=O)C1=C(CC)OC(N)=C(C#N)C1c1ccc(F)cc1F (stereo not shown),9.97
11,Cn1c(NC(=O)c2ccccc2F)cc(=O)n(C)c1=O,6.23
12,CCOC(=O)c1nnn(CC(=O)Nc2ccccc2)c1C(=O)OCC,15.2
13,COc1ccccc1OCc1ccc(C(=O)Nc2ccccc2)cc1,6.59
14,O=C(Nc1ccc(Nc2ccccc2)cc1)c1ccc(Cl)cc1,0.661
15,CC(NC(=O)c1ccccc1)c1ccc(F)cc1 (stereo not shown),12.2
16,O=C1CC(SC(=Nc2ccccc2)Nc2ccccc2)C(=O)N1c1ccc(Cl)c(Cl)c1 (stereo not shown),7
17,Cc1cc2c(NC(=O)CC(C)(C)CC(=O)O)cccc2nn1,9.06
18,O=C(NCCc1c[nH]c2ccccc12)C(=O)Nc1cc2c3c(c1)CC(=O)N3CCC2,7.54
19,COc1ccc(CCNC(=O)C(=O)Nc2ccc3nc4n(c(=O)c3c2)CCCCC4)cc1OC,4.3
20,Cc1ccc(S(=O)(=O)NNC(=O)c2cnn(-c3ccc(Cl)cc3)c2C(F)(F)F)cc1,4.73
21,CC(=O)N1CCCc2cc(S(=O)(=O)NCCC3=CCCCC3)ccc21,4.97
22,O=C(NCc1ccccc1Br)c1ccc2c(c1)OCCO2,15.2

row,Compound,"hERG current change (%, negative = inhibition) at 1uM [%]"
1,CC(=O)NC1C(OCc2ccccc2)OC(CO)C(OC(C)=O)C1OC(C)=O (stereo not shown),2.17
2,CCCS(=O)(=O)N1CCC(C(=O)NCCCN2CCCC2=O)CC1,11.3
3,O=C(O)/C=C/C(=O)Nc1ccc(O)cc1,12.1
4,CC(NS(=O)(=O)c1ccccc1)C1COc2ccccc2O1 (stereo not shown),0.411
5,Cc1cccc(N=Cc2[nH]c3ccc(Br)c(Cl)c3c2O)c1,21.4
6,CC(C)O.CN1CCc2c(c3c(n2C)CCN(C)[C@@H]3c2cccnc2)[C@H]1c1cccnc1.Cl,-2.27
7,O=C(NC(=S)NCCN1CCOCC1)c1ccccc1Cl,10
8,CC12CCC(C/C1=N/NC(=O)Nc1ccccc1)C2(C)C (stereo not shown),5.03
9,CCN(CC)C(=O)COc1ccc(-c2nnc(N3CCCCC3)c3ccccc23)cc1,6.64
10,Cn1c2ccccc2c2ncn(CCCN3CCOCC3)c(=O)c21,-6.04
11,COc1ccccc1C1C(C(N)=O)=C(C)Nc2ncnn21 (stereo not shown),-2.68
12,CCC(C)(C)NC(=O)C(c1ccc(OC)cc1)N(C(=O)CCC(=O)Nc1cc(C)on1)c1ccc2c(c1)OCCO2 (stereo not shown),11.3
13,C#CC[N+](C)(C)CC#Cc1ccccc1.[Br-],14.3
14,Cc1ccccc1N1CCN(S(=O)(=O)c2ccccc2)CC1,5.62
15,COc1ccc(C(=O)NCCSCc2ccccc2C)cc1,-5.69
16,COc1cccc(CNC(=O)CCC2CCCN(C/C=C/c3ccccc3OC)C2)c1 (stereo not shown),-34.5
17,CCCCC(O)(CCCC)C(=O)NN(C(=O)CCl)c1ccccc1,14.9
18,Cc1cccc(C)c1NC(=O)C(c1cccc([N+](=O)[O-])c1)N(C)C(=O)c1ccccn1 (stereo not shown),-6.29
19,O=C(Nc1ccccc1)N1CCn2c1nc1ccccc12,15.6
20,COC(=O)N/N=C/c1cn(CCCOc2ccccc2)c2ccccc12,0.62
21,O=c1oc2ccc3ccccc3c2cc1-c1nc2ccccc2o1,14
22,Cc1ccc(N2C(=O)c3cccc4c([N+](=O)[O-])ccc(c34)C2=O)c2cccnc12,10.2
